The values that follow come from article PMC6737914.

Sequences of proteins named here, by UniProt entry; tags and fusion partners are left off. A change or cut given only in a name is not applied to a line headed by its entry. A line that says so, or that is headed by a name, gives the form on record, which may keep a tag or linker. Residues count along the entry.
UniProt P38682: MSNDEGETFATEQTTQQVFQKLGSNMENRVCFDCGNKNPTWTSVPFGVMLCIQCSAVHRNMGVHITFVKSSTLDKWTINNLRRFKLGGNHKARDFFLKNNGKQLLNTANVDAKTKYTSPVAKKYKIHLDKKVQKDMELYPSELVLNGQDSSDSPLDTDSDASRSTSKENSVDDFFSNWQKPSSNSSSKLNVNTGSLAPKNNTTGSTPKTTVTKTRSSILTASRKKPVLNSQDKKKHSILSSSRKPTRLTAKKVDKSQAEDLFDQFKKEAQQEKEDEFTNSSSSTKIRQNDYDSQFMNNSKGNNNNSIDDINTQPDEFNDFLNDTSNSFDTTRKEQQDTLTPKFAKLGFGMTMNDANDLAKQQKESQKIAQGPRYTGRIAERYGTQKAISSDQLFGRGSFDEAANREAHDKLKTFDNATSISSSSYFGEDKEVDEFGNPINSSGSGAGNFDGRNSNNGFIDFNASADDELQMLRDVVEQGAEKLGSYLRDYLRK
MBP fusion of the Glo3 BoCCS domain alone (aa 137–375): residues 137-375 of P38682
MBP fusion of Glo3 (aa 296–459): residues 296-459 of P38682
GFP-tagged Glo3 S389, 398A (P38682, form named): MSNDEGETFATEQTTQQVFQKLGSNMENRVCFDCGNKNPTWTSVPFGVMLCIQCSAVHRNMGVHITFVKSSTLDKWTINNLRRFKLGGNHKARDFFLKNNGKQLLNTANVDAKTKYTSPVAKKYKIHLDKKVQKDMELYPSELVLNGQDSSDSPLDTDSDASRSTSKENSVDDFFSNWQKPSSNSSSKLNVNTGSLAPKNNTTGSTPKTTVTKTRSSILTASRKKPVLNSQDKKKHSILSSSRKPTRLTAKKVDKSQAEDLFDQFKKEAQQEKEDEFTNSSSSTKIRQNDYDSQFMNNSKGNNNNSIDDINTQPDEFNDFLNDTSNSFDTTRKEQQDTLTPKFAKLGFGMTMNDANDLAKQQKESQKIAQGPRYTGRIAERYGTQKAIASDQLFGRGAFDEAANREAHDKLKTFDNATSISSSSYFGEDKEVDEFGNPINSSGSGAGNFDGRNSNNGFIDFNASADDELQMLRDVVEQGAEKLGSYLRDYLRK
GFP-tagged Glo3 S389, 398D (P38682, form named): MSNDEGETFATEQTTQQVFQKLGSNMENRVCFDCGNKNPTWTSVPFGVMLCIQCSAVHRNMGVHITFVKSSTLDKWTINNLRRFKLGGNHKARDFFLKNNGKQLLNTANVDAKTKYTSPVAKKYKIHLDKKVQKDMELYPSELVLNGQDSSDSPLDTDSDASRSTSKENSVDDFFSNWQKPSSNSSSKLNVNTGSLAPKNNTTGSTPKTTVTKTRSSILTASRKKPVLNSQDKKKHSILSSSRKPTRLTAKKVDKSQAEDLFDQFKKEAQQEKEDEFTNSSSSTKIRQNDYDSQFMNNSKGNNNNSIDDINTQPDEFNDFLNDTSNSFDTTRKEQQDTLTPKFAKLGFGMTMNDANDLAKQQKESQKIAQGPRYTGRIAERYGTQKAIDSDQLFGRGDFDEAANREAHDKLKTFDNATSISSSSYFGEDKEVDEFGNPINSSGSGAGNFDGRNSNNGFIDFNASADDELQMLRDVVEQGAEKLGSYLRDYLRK
UniProt P53622: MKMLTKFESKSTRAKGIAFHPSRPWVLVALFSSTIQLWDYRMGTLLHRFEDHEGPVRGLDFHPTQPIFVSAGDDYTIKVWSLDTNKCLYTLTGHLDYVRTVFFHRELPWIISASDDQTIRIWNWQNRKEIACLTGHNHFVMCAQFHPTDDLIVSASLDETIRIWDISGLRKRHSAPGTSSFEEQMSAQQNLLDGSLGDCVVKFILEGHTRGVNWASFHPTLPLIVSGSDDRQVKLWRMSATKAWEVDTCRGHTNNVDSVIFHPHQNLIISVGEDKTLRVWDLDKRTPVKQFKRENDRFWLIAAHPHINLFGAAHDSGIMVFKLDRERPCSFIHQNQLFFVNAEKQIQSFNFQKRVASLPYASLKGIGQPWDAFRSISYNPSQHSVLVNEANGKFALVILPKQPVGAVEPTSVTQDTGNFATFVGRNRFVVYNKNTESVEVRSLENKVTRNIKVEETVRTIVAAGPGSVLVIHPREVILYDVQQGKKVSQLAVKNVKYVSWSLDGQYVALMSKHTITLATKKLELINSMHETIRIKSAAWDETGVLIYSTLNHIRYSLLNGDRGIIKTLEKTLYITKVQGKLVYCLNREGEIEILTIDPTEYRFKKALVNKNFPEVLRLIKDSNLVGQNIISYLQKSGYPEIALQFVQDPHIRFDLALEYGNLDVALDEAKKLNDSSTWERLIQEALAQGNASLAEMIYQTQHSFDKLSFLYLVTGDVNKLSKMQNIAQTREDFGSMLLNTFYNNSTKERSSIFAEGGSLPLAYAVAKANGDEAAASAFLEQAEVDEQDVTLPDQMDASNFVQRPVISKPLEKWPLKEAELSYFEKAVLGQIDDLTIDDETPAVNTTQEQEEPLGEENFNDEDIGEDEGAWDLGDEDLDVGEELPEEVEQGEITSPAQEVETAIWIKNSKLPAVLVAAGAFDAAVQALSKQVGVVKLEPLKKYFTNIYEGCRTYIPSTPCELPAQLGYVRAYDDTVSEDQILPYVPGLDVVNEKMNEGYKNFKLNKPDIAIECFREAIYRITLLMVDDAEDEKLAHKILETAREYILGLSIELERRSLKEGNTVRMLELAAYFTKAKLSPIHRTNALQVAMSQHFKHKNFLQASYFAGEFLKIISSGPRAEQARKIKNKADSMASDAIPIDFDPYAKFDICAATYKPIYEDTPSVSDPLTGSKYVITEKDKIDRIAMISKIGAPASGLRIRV

These are yes or no findings as the source states them, for the method shown. In cells and extracts the contact can be indirect. Some entries that bind do so weakly or less than the wild type.

In assay [1] the target is GFP-tagged Glo3 (S. cerevisiae) (UniProt P38682). The assay is described as follows: co-IP; affinity chromatography of GFP-tagged proteins on µMACS GFP micro-beads from yeast cytosol (lysis buffer without detergent: 25 mM Tris-HCl pH 7.4, 50 mM KCl, 10 mM MgCl2, 5% glycerol), 30 min 4°C; eluates on western blots probed for coat subunits. (In western blotting, separated proteins are transferred to a membrane and probed.)

In assay [2] the target is MBP fusion of the Glo3 BoCCS domain alone (aa 137–375) (S. cerevisiae) (UniProt P38682). The assay is described as follows: pull-down; binding of coatomer from yeast lysates to MBP fusion proteins of Glo3; bound fraction eluted, western blot with coat antiserum; only the target purified.
The target in assay [3] is MBP fusion of Glo3 (aa 296–459) (S. cerevisiae) (UniProt P38682). The assay is described as above.
In assay [4] the target is GFP-tagged Glo3 S389, 398A (S. cerevisiae) (UniProt P38682). Briefly: co-IP; affinity chromatography of GFP-tagged Glo3 or its variants on µMACS GFP micro-beads from detergent extracts (1% Triton X-100) of Δglo3 or Δgcs1 strains; western blots for COPI and Gcs1.
Assay [5] deals with GFP-tagged Glo3 S389, 398D (S. cerevisiae) (UniProt P38682). Described as above.
In assay [6] the target is GFP-tagged Glo3 (S. cerevisiae) (UniProt P38682). Described as above.

Take “COPI coat (coatomer), heptamer of α, β′, ε, β, γ, δ and ζ subunits (from UniProt P53622 1-1201; P41811 1-889; P40509 1-296; P41810 1-973; P32074 1-935; P43621 1-546; P53600 1-189) (complex)”: the binding entry is “binds” in assay [1]; “binds” in assay [2]; “no binding” in assay [3]; “binds” in assay [4]; “binds” in assay [5]; “binds” in assay [6].
